Among all 280,000 compounds or so, about 100 (0.036%) were called active. Inconclusive results, whose numbers are uncertain, are shown with a selection of clear calls. Calls come from the whole dose curve; as a rule, active = well fitted inhibition curve with a large enough effect in the signal ratio, with a control signal flat (not every such curve was filed as active); inconclusive = small, poorly fitted or top-dose-only effect, or effect the other way, or a change in a side signal; inactive = no such curve, though single readings can be large or run the other way; the % refers to the signal ratio. Where the call is inconclusive, the potency comes from a doubtful curve fit. “Side channel” marks fits to a control or component signal instead of the main read-out.
What follows are molecules tested against Muscleblind-like protein 1 (Homo sapiens) (UniProt Q9NR56) (assay: qHTS Assay for Inhibitors of MBNL1-poly(CUG) RNA binding). Conditions: TR-FRET MBNL1-His/biotin-(CUG)12 binding, 665/545 ratio; activity change, negative = inhibition: at 57.5 µM (top of the series).
In short: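 Compounds (final 92 nM to 58 uM) are added to His-tagged MBNL1 and biotin-(CUG)12, then terbium anti-His antibody and streptavidin-XL665 (5 nM final). After 60 min at room temperature, the 665/545 nm ratio is read.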
% is set by controls: 0 for no effect and ±100 for the full control effect; potency is the fitted concentration of half-maximal effect; tags give direction and shape of the fitted curve or compound fluorescence and quenching.

Chain of UniProt Q9NR56 (Q9NR56 whole entry, looked up): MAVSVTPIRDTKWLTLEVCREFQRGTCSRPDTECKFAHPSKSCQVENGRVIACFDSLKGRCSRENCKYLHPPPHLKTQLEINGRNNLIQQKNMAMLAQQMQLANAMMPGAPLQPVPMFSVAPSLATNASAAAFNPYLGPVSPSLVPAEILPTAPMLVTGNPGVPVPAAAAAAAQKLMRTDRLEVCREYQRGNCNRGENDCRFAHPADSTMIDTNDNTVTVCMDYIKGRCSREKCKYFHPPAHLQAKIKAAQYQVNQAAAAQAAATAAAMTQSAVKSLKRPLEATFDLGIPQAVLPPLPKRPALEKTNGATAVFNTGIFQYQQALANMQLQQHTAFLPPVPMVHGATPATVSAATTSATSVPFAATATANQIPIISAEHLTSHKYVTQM

Compound | activity change, negative = inhibition | Potency
CCSc1nnc(NC(=O)CN(C)S(=O)(=O)c2ccc(F)cc2)s1 | inactive: -12% | 
CCN(CC)CCCNC(=O)c1cc2nc(-c3ccccc3)cc(C(F)(F)F)n2n1 |  | inconclusive: 8.91 µM [quencher, side channel, partial curve]
COc1ccc(Cl)cc1S(=O)(=O)Oc1ccc(NC(C)=O)cc1 |  | inconclusive: 79.4 µM [inhibitor, single point]
COc1ccc(CNC(=O)CCN2C(=O)c3ccncc3C2=O)cc1OC |  | inconclusive: 20 µM [quencher, side channel, partial curve]
CCCC(=O)N1CCN(c2ccc([N+](=O)[O-])cc2Cl)CC1 |  | inconclusive: 15.8 µM [quencher, side channel, partial curve]
Cc1c(OC(=O)c2ccc([N+](=O)[O-])cc2)c2c(c[n+]1C)COC(C)(C)OC2 |  | inconclusive: 17.8 µM [quencher, single point]
Cc1c(CCO)c(=O)[nH]n1S(=O)(=O)c1ccc([N+](=O)[O-])cc1 |  | inconclusive: 8.91 µM [quencher, side channel, partial curve]
O=C(COC(=O)/C=C/c1cccc([N+](=O)[O-])c1)NCc1ccco1 |  | inconclusive: 12.6 µM [quencher, partial curve]
COc1ccc(C(=O)NNC(=O)C(Cc2ccc(O)cc2)NC(=O)c2ccccc2NC(=O)c2ccc(OC)cc2)cc1 (configuration not stated) |  | inconclusive: 39.8 µM [fluorescent, side channel, single point]
NC(=S)NN=C1c2cc(OCCN3CCOCC3)ccc2-c2ccc(OCCN3CCOCC3)cc21 |  | inconclusive: 15.8 µM [quencher, side channel, partial curve]
O=C(O)CCS(=O)(=O)c1cccc2cccnc12 | inactive: 1.5% | 
COc1ccc(NC(=O)CN2C(=O)NC(C)(c3ccc(C)cc3)C2=O)c([N+](=O)[O-])c1 (configuration not stated) |  | inconclusive: 25.1 µM [quencher, side channel, partial curve]
CCn1c(N)c(C(=O)NCCOC)sc1=S | inactive: 14.1% | 
Cc1ccc(CN2CC(C(=O)Nc3ccc(F)c([N+](=O)[O-])c3)CC2=O)cc1 (configuration not stated) |  | inconclusive: 7.94 µM [quencher, side channel, partial curve]
Cn1nccc1NC(=O)Nc1ccccc1 |  | inconclusive: 100 µM [inhibitor, single point]
CCN(CC)C(=O)c1cnn(-c2ccccc2)c1NC(=O)c1ccccc1F |  | inconclusive: 5.62 µM [quencher, side channel, partial curve, poor fit]
COC(=O)c1[nH]c2ccccc2c1NC(=O)c1ccccc1[N+](=O)[O-] |  | inconclusive: 39.8 µM [quencher, side channel, partial curve]
CN(C)S(=O)(=O)c1cc(NC(=O)CN2C(=O)NC3(CCCc4ccccc43)C2=O)ccc1Cl (configuration not stated) |  | inconclusive: 5.62 µM [fluorescent, side channel, full curve]
O=[N+]([O-])c1ccc2c(c1)c(-c1ccccc1)nc1nncn12 |  | inconclusive: 10 µM [quencher, side channel, partial curve]

Compound | activity change, negative = inhibition | Potency
COC(=O)[C@@H](N)CS | inactive: -6.93% | 
CC1CC(C)CN(CCOc2ccc(Cl)cc2Cl)C1 (configuration not stated) | inactive: -2.37% | 
O=C1NCC(COc2ccc([N+](=O)[O-])cc2)O1 (configuration not stated) |  | inconclusive: 10 µM [quencher, partial curve]
COc1cc(/C=C(\C#N)c2nc3ccccc3[nH]2)c([N+](=O)[O-])cc1OCc1ccccc1 |  | inconclusive: 8.91 µM [quencher, side channel, full curve]
CC(/C=N/NC(=O)C(O)c1ccccc1)=C\c1ccccc1 (configuration not stated) |  | inconclusive: 25.1 µM [quencher, side channel, single point]
Cn1c(=O)n(C)c2cc([N+](=O)[O-])c(N3CCN(C(=O)c4ccc(F)cc4)CC3)cc21 |  | inconclusive: 3.55 µM [quencher, side channel, full curve]
CCOC(=O)c1ccc(-n2c(N)c(C(=O)NCc3ccco3)sc2=S)cc1 |  | inconclusive: 17.8 µM [quencher, side channel, partial curve]
COc1ccc(Nc2nc(-c3c(C)nc4ncccn34)cs2)cc1 |  | inconclusive: 7.94 µM [quencher, side channel, full curve]
O=C(N/N=C/c1cccc([N+](=O)[O-])c1)c1ccc2nc[nH]c2c1 |  | inconclusive: 11.2 µM [quencher, side channel, partial curve]
COc1ccc2oc(=O)c(-c3nc4ccccc4o3)cc2c1 |  | inconclusive: 10 µM [quencher, side channel, partial curve]
CCOc1ccc(NC(=S)Nc2cccc3ccccc23)cc1 |  | inconclusive: 39.8 µM [quencher, side channel, partial curve, poor fit]
CN1CCN(C(=O)c2cc3c(ccc4ccccc43)oc2=O)CC1 |  | inconclusive: 25.1 µM [quencher, side channel, partial curve]
COc1ccccc1N1CCN(C(=O)C(C)NC(=O)c2cccc([N+](=O)[O-])c2)CC1 (configuration not stated) |  | inconclusive: 14.1 µM [quencher, side channel, partial curve]
CC1=C(C(=O)OCc2ccccc2)C(c2ccccc2Cl)NC(=O)N1CCCCCC(=O)O (configuration not stated) | inactive: -7.1% | 
Cc1ccc(Cn2c(N/N=C/c3ccncc3)nc3c2c(=O)n(C)c(=O)n3C)cc1 |  | inconclusive: 28.2 µM [quencher, side channel, partial curve]
CC(=O)c1cccc(NC(=O)c2ccc(-c3ccccc3[N+](=O)[O-])o2)c1 | inactive: 13% | 
Cc1ccc(S(N)(=O)=O)cc1NC(=O)/C=C/c1ccc2c(c1)OCO2 |  | inconclusive: 17.8 µM [quencher, side channel, partial curve]
N#C/C(=C\c1ccc[nH]1)C(=O)NC1CC1 |  | inconclusive: 25.1 µM [quencher, side channel, single point]

Reference: PubChem BioAssay AID2675 (National Center for Advancing Translational Sciences (NCATS), 2010)
